# Data published in PubChem BioAssay AID1508642 (National Center for Advancing Translational Sciences (NCATS), 2021).
# Hit rate of the full screen: of about 43,000 compounds, about 200 (0.47%) were called active. Inconclusive results (about 12%) are left out. Calls come from the whole dose curve; as a rule, active = well fitted cell-killing curve with a large enough effect; inconclusive = small, poorly fitted or top-dose-only effect, or effect the other way; inactive = flat fitted curve, though single readings scatter. This is one part of the list.
# Assay: Cell viability qHTS assay in S16 Pmp22-F2sN cells; note: nearly all actives have a fitted effect of over 65% in size
# Conditions: S16 Pmp22-F2sN Schwann cells viability, CellTiter-Glo, 24 h; series mostly up to 57.5 µM; activity change, negative = cytotoxicity: at the top concentration
# Summary of the method: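 Used to flag compounds lowering reporter output through toxicity, this quantitative HTS measures ATP-based CellTiter-Glo luminescence in S16 Pmp22-F2sN Schwann cells after 24 h compound exposure at 37C.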
# % is set by controls: 0 for no effect and ±100 for the full control effect; potency is the fitted concentration of half-maximal effect.
SMILES,"activity change, negative = cytotoxicity",Potency
Cc1ccc2c(CC(=O)Nc3c(C(=O)Nc4cccc(Cl)c4)oc4ccccc34)coc2c1C,inactive: 0.2%,
COc1ccc2cc(CNc3ccccc3)c(=O)n(CC(=O)Nc3ccc(C)cc3C)c2c1,inactive: -11.3%,
Cc1ccc(NC(=O)Cn2c(=O)c(C(F)(F)F)nc3ccccc32)c(C)c1,inactive: 26.7%,
CCCCN(CC)CCNC(=O)Cn1c(=O)c2cccn2c2cccnc21,inactive: -3.08%,
COc1ccc(C(CC(=O)Nc2ccc(OC)c(OC)c2)N2Cc3ccccc3C2=O)cc1 (configuration not stated),inactive: 8.38%,
COc1ccc(OC)c(CCNC(=O)c2ccc3[nH]c(C)c(C)c3c2)c1,inactive: -10.6%,
COCCn1c(C)cc(O)c(C(c2ccccc2OC)N2CCCCC2)c1=O (configuration not stated),inactive: -0.819%,
Cc1ccc(C)c(N2CCN(C(=O)c3cccn3-c3nnc(N4CCCCC4)s3)CC2)c1,inactive: -3.39%,
COc1cccc(CNC(=O)c2cc3c(=O)n(C)c4ccccc4c3n2C)c1,inactive: 13.8%,
CCN1CCN(CCCNC(=O)c2cc3c(s2)-c2c(C)cccc2OC3)CC1,,active: 25.1 µM
O=S(=O)(c1ccc(-c2cc(C(F)(F)F)on2)s1)N1CCN(c2cccc(Cl)c2)CC1,inactive: 6.31%,
CCc1nc2ccc(C(=O)NCCc3ccc(OC)c(OC)c3)cc2nc1CC,inactive: -4.07%,
CCOc1ccccc1CNC(=O)c1[nH]c2ccccc2c1Sc1ccccc1,inactive: 1.47%,
CCn1ccc2cc(S(=O)(=O)N3CCC(C(=O)NCCOC)CC3)ccc21,inactive: -1.73%,
Cc1nn2c(C(F)(F)F)cc(-c3ccc(OC(C)C)cc3)nc2c1C#N,inactive: 2.25%,
Cc1ccccc1Nc1ncnc2c1c(-c1ccccc1)cn2-c1ccc(F)cc1,inactive: 11.5%,
O=C(CCc1nc2cccnc2n1Cc1ccccc1)NCc1cccc(Cl)c1,inactive: -3.18%,
OCc1cnc(SCc2cccc(F)c2)n1Cc1ccc(F)cc1,inactive: -16.1%,
Cc1c(C(=O)N2CCCC2)oc2c1-c1nn(CC(=O)NCc3cccc(F)c3)cc1CC2,inactive: -1.42%,
CN1c2ccc(Cl)cc2-c2nc(SCC(=O)Nc3cc(F)ccc3F)ncc2S1(=O)=O,inactive: -19.4%,
COC(=O)NNC(=O)C1CCC(C)CC1 (configuration not stated),inactive: -1.86%,

SMILES,"activity change, negative = cytotoxicity",Potency
Cc1cccc(N2C(=O)CS(=O)(=O)C23C(=O)N(C)c2ccccc23)c1 (configuration not stated),inactive: -2.27%,
Cc1ncc(COC(=O)C(C)C)c2cc(C(=O)Nc3ccccc3C(F)(F)F)c(=O)oc12,inactive: -0.254%,
CCCCn1c(CNC(=O)C23CC4CC(CC(C4)C2)C3)nnc1SCC(=O)Nc1ccccc1,inactive: -5.92%,
O=C(O)Cn1nc(N2CCN(c3ccc(F)cc3)CC2)ccc1=O,inactive: 7.7%,
COC(=O)c1ccccc1NC(=O)c1ccc2c(c1)CCN2S(=O)(=O)c1ccc(C)cc1,inactive: 7.7%,
O=c1cc(-c2ccccc2)n2c(SCc3ccc([N+](=O)[O-])cc3)nnc2[nH]1,inactive: 10.9%,
CC1=C(C(N)=O)C(c2cccc(F)c2)n2nc(SCc3ccccc3)nc2N1 (configuration not stated),inactive: 2.32%,
CCCCc1ccc(C(=O)Nc2ccc3nc(N(CC)CC)cc(C)c3c2)cc1,inactive: 15.9%,
COc1ccc2cc(CNc3ccc(C)cc3)c(=O)n(CC(=O)Nc3ccc(OC)c(Cl)c3)c2c1,inactive: 18.1%,
O=C(CCCn1c(=O)c2sccc2n(Cc2ccc(F)cc2Cl)c1=O)NCc1ccc2c(c1)OCO2,inactive: 1.44%,
COc1cc(OC)c(NC(=O)C2=C(C)C(=O)OC23CCCCC3)cc1Cl,inactive: -6.19%,
COc1ccccc1CNC(=O)c1cc(Sc2cccc(Cl)c2)nc2ccccc12,inactive: 8.1%,
CCc1ccc(C(=O)c2cnc3ccc(C)cc3c2S(=O)(=O)c2ccc(OC)cc2)cc1,inactive: -0.151%,
COCCc1nn2c(=O)cc(COC(=O)c3cccs3)nc2s1,inactive: 6.15%,
CCOc1ccccc1NC(=O)CN(CCc1ccccc1)S(=O)(=O)c1ccc(C)cc1,inactive: -10.7%,
Cn1nnc2c(N3CCCCC3)ncnc21,inactive: -8.19%,
CCc1cccc(C)c1NC(=O)CN1C(=O)c2c(c3ccccc3n2C)C1c1ccc(OC)cc1 (configuration not stated),inactive: -4.29%,
CCn1ccc2cc(S(=O)(=O)N3CCC(C(=O)NCCc4ccc(SC)cc4)CC3)ccc21,inactive: -28.1%,
Clc1ccc(CNc2nc3ccccc3c3nc(-c4cccnc4)nn23)cc1,inactive: 8.5%,
COc1cc2cc(CNc3ccc(C)cc3)c(=O)n(CC(=O)Nc3ccc(C(C)C)cc3)c2cc1OC,inactive: -3.36%,
COc1ccccc1NC(=O)c1ccccc1NC(=O)c1ccccc1,inactive: 14.3%,

SMILES,"activity change, negative = cytotoxicity",Potency
CN(C)c1ccc(CNC(=O)CCC(=O)N2Cc3ccccc3Oc3ncccc32)cc1,inactive: -0.814%,
COc1ccc(NC(=O)CSc2nc(-c3ccc(OC)cc3)[nH]c2-c2ccc(F)cc2)cc1,inactive: -5.47%,
Cc1ccc(CN(C(=O)COc2ccc(C(C)(C)C)cc2)C2CCS(=O)(=O)C2)o1 (configuration not stated),inactive: -3.32%,
CCc1ccccc1NC(=O)C(NS(=O)(=O)c1ccc2c(c1)CCC(=O)N2)c1ccccc1 (configuration not stated),inactive: -1.24%,
CCCCN(C)C(=O)CN1C(=O)CCn2nc(-c3cn(C)c4ccccc34)cc21,inactive: 11.2%,
COc1cccc(CCNC(=O)c2c(O)nc3cc(C)ccn3c2=O)c1,inactive: -0.233%,
COc1ccc(C2=NN(CC(=O)NCc3ccccc3Cl)C(=O)CC2)cc1,inactive: 6.93%,
CCc1cccc(NC(=O)c2nc(-c3ccncc3)no2)c1,inactive: -2.01%,
CCOc1ccc(C(=O)Nc2ccc(-c3nc4cc(C(C)C)ccc4o3)cc2)cc1Cl,inactive: -7.55%,
COc1cccc(CNC(=O)N2CCC(CN3CCC(C)CC3)CC2)c1,inactive: 3.73%,
Cc1ccc(CCNC(=O)c2c(C)oc3ncnc(N4CCOCC4)c23)cc1,inactive: -1.89%,
Fc1cccc(NCc2cccn2-c2nnc(N3CCOCC3)s2)c1,inactive: 4.59%,
COc1cccc(NC(=O)Cn2c(=O)n(CCc3ccccc3)c(=O)c3c4c(sc32)CN(C(C)=O)CC4)c1,inactive: -0.0383%,
CCOc1ccc(NC(=O)NCc2ccc3c(c2)CCN3C(C)=O)cc1,inactive: 24.8%,
CCOC(=O)c1cc2c(=O)n3ccccc3nc2n(CC2CCCO2)c1=NC(=O)c1ccc(OC)cc1OC (configuration not stated),inactive: -17.1%,
Cc1cc(C)n(-c2nc3ccccc3nc2N2CCN(c3cccc(C)c3C)CC2)n1,inactive: -3.37%,
CCCNC(=O)C(CC)n1nc(CC)n2c(cc3oc(C)cc32)c1=O (configuration not stated),inactive: -2.11%,
CCOC(=O)N1CCc2c(sc3c2C(=O)NC(c2cc(OC)c(O)c(OC)c2)N3)C1 (configuration not stated),inactive: 2.78%,
COc1cccc(C(=O)c2cn(CC(=O)NCCc3ccccc3)c3nc(C)ccc3c2=O)c1,inactive: -0.797%,
CCCN(CCC)CCCNC(=O)Cn1cc2c(n1)-c1c(oc(C(=O)N3CCCC3)c1C)CC2,inactive: 1.26%,
